Measured values reported in US20170355953A1 (OSAKA UNIVERSITY, published 2017).

Target: T1, bovine afamin (from fetal calf serum in the culture medium) (bovine, UniProt G3MYZ3 22-604)
T1 construct: mature; Native glycoprotein from fetal calf serum; also called protein X; 65-kDa protein
T1 sequence (looked up): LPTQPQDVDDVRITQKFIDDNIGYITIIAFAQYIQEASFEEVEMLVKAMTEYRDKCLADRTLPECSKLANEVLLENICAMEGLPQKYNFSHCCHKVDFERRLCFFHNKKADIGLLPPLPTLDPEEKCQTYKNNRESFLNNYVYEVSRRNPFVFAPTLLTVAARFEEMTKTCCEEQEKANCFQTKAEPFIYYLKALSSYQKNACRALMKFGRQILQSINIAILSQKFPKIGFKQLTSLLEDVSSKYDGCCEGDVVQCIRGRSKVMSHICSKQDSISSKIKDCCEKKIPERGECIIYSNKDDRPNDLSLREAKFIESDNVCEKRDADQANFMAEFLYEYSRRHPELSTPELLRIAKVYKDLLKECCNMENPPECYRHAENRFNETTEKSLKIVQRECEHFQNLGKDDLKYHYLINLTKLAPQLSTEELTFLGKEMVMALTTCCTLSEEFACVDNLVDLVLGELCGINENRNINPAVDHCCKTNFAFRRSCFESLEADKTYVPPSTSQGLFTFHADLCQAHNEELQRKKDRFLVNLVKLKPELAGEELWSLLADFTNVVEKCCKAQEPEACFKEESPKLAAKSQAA
Test: co-immunoprecipitation on B91-sepharose from W-Wnt3a/HEK culture supernatant, western blotting with an anti-Wnt3a antibody
Experimental: The Wnt3a expressing cells (L-3a and W-Wnt3a/HEK) were cultured for 3 days, and the supernatants were harvested. To 1 mL of each supernatant, 20 μL of a sepharose with an anti-bovine afamin monoclonal antibody (clone number B91, hereinafter called “B91”) immobilized thereto was added, and the mixture was rotated end over end for 3 hours. The sepharose was precipitated by centrifugation, and the supernatant was removed. After the sepharose was washed 3 times with 1 mL of TBS, 30 μL of SDS sample buffer was added, and elution was performed under heating at 95° C. for 2 minutes. Eight microliters of the eluate was subjected to electrophoresis under reducing conditions, and separated proteins were stained with ORIOLE. In a separate experiment, 4 μL of the eluate was subjected to electrophoresis, and western blotting using an anti-Wnt3a antibody was performed (see Example 1).

B1: mouse Wnt3a fused with an affinity tag (W-Wnt3a) (ligand)
chain: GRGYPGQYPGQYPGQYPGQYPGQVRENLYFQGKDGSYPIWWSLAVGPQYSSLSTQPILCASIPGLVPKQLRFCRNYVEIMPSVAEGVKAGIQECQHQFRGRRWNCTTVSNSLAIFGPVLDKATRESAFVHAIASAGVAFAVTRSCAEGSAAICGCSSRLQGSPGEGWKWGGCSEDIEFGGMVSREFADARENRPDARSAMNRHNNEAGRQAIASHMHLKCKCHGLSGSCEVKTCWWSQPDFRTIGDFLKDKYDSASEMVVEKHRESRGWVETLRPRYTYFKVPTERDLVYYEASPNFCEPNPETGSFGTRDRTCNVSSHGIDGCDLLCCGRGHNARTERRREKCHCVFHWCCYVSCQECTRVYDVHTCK
notes: Secreted from HEK293S GnT1- cells (W-Wnt3a/HEK); The chain is built here from the named pieces; also called N-terminally tagged Wnt3a; 37-kDa Wnt3a
binding result: binds
